Test results from the supplement of paper PMC12645437, “Orthogonal IMiD-Degron Pairs Induce Selective Protein Degradation in Cells” (ACS Chemical Biology, 2025).
Some of the results follow.
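Further: jurkat cells carrying a lentiviral library of mutant zinc finger degrons fused to EGFP plus mCherry, mCherry+ cells FACS sorted, degron abundance counted by next-generation sequencing.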

What follows are sequences tested against no compound (DMSO) (assay: log2 fold change of degron read counts, EGFP-low vs EGFP+ sorted cells; higher = lower degron-EGFP level without compound (poor expression or instability)). Settings: compound: DMSO control; 18 h.
FICEICGRPFTQKGNLLRHIKL was tested, and the “log2 fold change of degron read counts” value was -0.964.
For FCCPQCGAYFTQKGNLLRHIKL, the “log2 fold change of degron read counts” value was 0.0398.
In the case of LICEICGFCCTQKGNLLRHIKL, the “log2 fold change of degron read counts” value is reported as 0.671.
With FFCPQCGADFTQKGNLLRHIKL the “log2 fold change of degron read counts” value was -2.13.
FNCPVCGAHFTQKGNLLRHIKL was tested, and the “log2 fold change of degron read counts” value was -0.273.
With FTCNQCGRVFTQKGNLLRHIKL the “log2 fold change of degron read counts” value was -0.377.
With FSCDICGAAFTQKGNLLRHIKL the “log2 fold change of degron read counts” value was -1.24.
In the case of FRCEQCGASFTQKGNLLRHIKL, the “log2 fold change of degron read counts” value is reported as -2.22.
With FLCPICGARFTQKGNLLRHIKL the “log2 fold change of degron read counts” value was -0.381.
For FYCNQCGRGFTQKGNLLRHIKL, the “log2 fold change of degron read counts” value was -0.147.
For FFCDICGAYFTQKGNLLRHIKL, the “log2 fold change of degron read counts” value was -0.4.
With FMCPICGANFTQKGNLLRHIKL the “log2 fold change of degron read counts” value was -0.0201.
FRCEICGAGFTQKGNLLRHIKL was tested, and the “log2 fold change of degron read counts” value was -1.15.
With FGCNQCGADFTQKGNLLRHIKL the “log2 fold change of degron read counts” value was -0.491.
